# Measurements from the supplement of paper PMC12632987.
# In all, about 2,300 sequences were measured (“median log2 fold change of GCK-ALFA target abundance (FLAG IP / Myc IP barcode read proportion)”: median about 0.095, lowest 2% from about -0.47 on). The list shows a part of the results.
# B1: LC3A_free_0_2112 (protein)
# chain: MEKYRLEIVIKIKGKTEELAEKAAEEIVKRAKELAAKYGAEVEVKITDIDGTGEKVVEIVVSGLTLDQAVALERELIAEAEEIAKKYGVEVDIYTGIERL
# B2: LC3A_147_508 (protein)
# chain: YKVVITIDLIVKNKVEEIKKKFEELVKELKEKGYEVELEIKVEKIDENTYYVNVTITIKTETKEEAEEAKNLALDLIDKIEEELKDDILGSLISSEIIEE
# B3: LC3A_127_201 (protein)
# chain: EKRELLLKAEELAEKALKALQEIPKEGEKAIKKAIKLAEELLELLEKIPELKEAAEDAKQLLKQLKELPKLSKAEQEEAIEHMEMIAEGILIDIESELLK
# B4: LC3A_free_46_2342 (protein)
# chain: MTLEIDVDILADTKEKAEKAVEELVKLFKELAKEYNAELEIEVEIEKLEDGSYYAHIRAVFKGVTKEQAQEIEDKVVDKVEEISEKYGVAAIVSFEIIET
# B5: LC3A_28_797 (protein)
# chain: SAVDEELARARAEARAALARGEEAVLTVRVTGDTTVADAERIAAALREIVEEAASLPRLSIVIDLSGGVSQEVIDILADAGEELEERYPNVNVILALDEE
# B6: LC3A_28_920 (protein)
# chain: MTAEEIIAEIRKIAKEAIEKGEDAFIEVEIDSSHTAEEAAAIMDEVEREVAKLSAAGLKVDIVVDLDDVSQEVLDTVADRADEIEEKYPNVNVVIALDEE
# B7: LC3A_28_1211 (protein)
# chain: SAADAAIAAFRAQVDAAIAAGEPQTIVVRIGGSITVEDAKRIMAAVREEVARAAGLPGLSIVIDLGGGVSQEVIDVVGEEAERIEKEFPNVTVIIALEER
# B8: LC3A_free_46_2395 (protein)
# chain: ITGYIDILLEGATEEQAKEIAKKAEEKIKEEAAKKGVNVEIKVKIEKDEEGNIFINIEVKMDTDDEQVALDILSETEDEALKLAKELGIKASSIISVEKD
# B9: LC3A_45_1930 (protein)
# chain: MYKATVDLLVPKELADEVYEKIKEELEKLEAEYGDDLEVDYETLEASYEASKDEEEVYLEVNIYAPNKQLALDAADKLVDSIEEFTNGKVASMISIEELP
# B10: LC3A_free_8_2532 (protein)
# chain: STQDFVNEAVELLDELEKKVTEKAKELGISELDILDLELLIGSAIIDVIEMQDEPKEKILKEVEEDLKEIEKRAKEISEELAEEVKKLSEEILKKLKEKL
# B11: LC3A_28_1151 (protein)
# chain: SAMVEKAKAQIEKDAEKDKNEEEIYLNVTFEKGMTLEEAKEVMDYVEEVVEKNKDKKKIYIVVDFTEPLSQEVIDYILEKSEEIEEKFPNVSVIIALHED
# B12: LC3A_3_1710 (protein)
# chain: GEELLKEAEKILKEQGLSEETKEAVLAALKALLEKGYEEAAKTLIELLKEAKDLSDETILDFALDVKEYVETEDVSEEEAIEKIKEEYEIAKNDEEIEEL
# B13: LC3A_3_1584 (protein)
# chain: LEEEEAALLEELAAAGHSPETLAAVRELLEALRERGFEEAARHVIELFRENVDLPDDLLLDIALELLRALEEEDLSEEELIELAEELFRTARNEKEIEEA
# B14: LC3A_28_1192 (protein)
# chain: SPADETIAAIKAQAAKALEEGEGAVIEVNISSELTKEDVERIAATIKAEAEKLKDLPSVSIVINVDAGVPQENIDLLAETGDEIEAKYPNITVIIALDED
# B15: LC3A_free_46_2357 (protein)
# chain: YKAEIDIDLLHDDEEVLKAAVEEIEKKAKEIAKKYGLKIKIEKSFEKLPDGSYYAEIKIILEGENKEDVEKAVNELINEIEKISEKYDVASIISYEIEES
# B16: LC3A_3_1449 (protein)
# chain: GEELIEEAKKILKEQGRSEETIKAAEELLKALKEKGYEKAMETFVEELKKLKDVSSEIILAMFEDIKYEVENKDLSEEEVVEIIKSEAAAAISENEIIEL
# B17: LC3A_102_159 (protein)
# chain: DIEKKIEEIIKKAVKKMEEFLKKDKSLTEEEKEEILKITREALEALAEILLSEAQHGFVDLVAEDKLLEAKEKLKEYPKEVQEEAEKILKEAEEEIKKLL
# B18: LC3A_36_1338 (protein)
# chain: MEVIVASSKREEVEKATEEANKKGADLKLIFTKETTVEEIEENLELILEKAKNISSLIIDIDADTEEELLEKIKVASEMADKLEKEKGVTVIISYDVDEK
# B19: LC3A_3_1494 (protein)
# chain: MPELLARLRAELEAAGASPEQIARVLAAARELLARGYEATVERAIALIRRHADLSPRDLVAAFLTTADLALERGLSEAEAVAHAERVFADVAEIEALDEN
# B20: LC3A_28_1064 (protein)
# chain: MKVEEEIKKALEEAEEAKKRGEEALITLKIDDSDTEEDVEKKLKTMEEIAELTKDLPSVTILVDVDSSRKEEVTKKVSEVGDRLEKKYPNVTVIIALSEE
# B21: LC3A_free_39_2212 (protein)
# chain: SEEELDEIIKEIAKESGLDYEEIKEKLKEIQEVAGLSLEQMKKLAEAILKAVKEGADAKEILERVLKLAKELKAAGKSPEEIAKALIEEVEDYRNLIPLD
# B22: LC3A_28_1021 (protein)
# chain: SEMEERVKEIEKEIEKAVAAGEEVVVTFTITPEDSLEEVKEAMERLKKIVIEAGKKGKVSLVVDLEKGVSQEKLDVVMEAGDEIEKEAPNANVIIALEEE
# B23: LC3A_132_301 (protein)
# chain: GEELAKKIKKEVKKLVEEAKKNKDNEEKVEEYFEKIEELLKEAEKKLTPEQKAKVFKETADLLDELSKAFLAAGKEQQALEADGLAIEAESLSLRAEKEI
# B24: LC3A_16_527 (protein)
# chain: KEEARKTLELLKAAYAALDTDADAFIAKMAEIDPEAAAKLRAAAARPDAKATRYEILAEKLKEFYEEYKDELTEEELAEVENMATAADVEADLERLKLEE
# B25: LC3A_45_1983 (protein)
# chain: MYKATIDLLVPRELAEEALELAKRFAEELQKELGPELKVDFEKLEESYEETKDEEDVYLELDIYHPDKDVALDAADRIVDRLEEELGGKVAAIISVEEVP
# B26: LC3A_free_39_2269 (protein)
# chain: SEEELKKAKEEILKLVAPLSKEAQEAVKEILELIEGNVELAKTLLENIEKAKKEGADVEALIKEALKLVKELKEKGASPEEIIKELNELANDFINLIPID
# B27: LC3A_free_39_2241 (protein)
# chain: SMEELEKLIKEIAEKSGLPYEEVKAKIKEIQEVAGLSDEQMLEIAKAILEAVEAGADGKEILEKSLEIAKELKAEGKSPEEILEAILEYIEDMRNLVPLD
# B28: LC3A_free_8_2508 (protein)
# chain: MDQSVVDTLVKLLDEMEKKLVEKLKELGASRLDILDIEILIGSAIAEVYDLSDSSMEELLKSLTESLEEIIERAKEISEELAELAKESAEKILKTLEEAS
# B29: LC3A_28_1161 (protein)
# chain: SAVDESIAAARAAAEAAIAAGEPAVVEIVVTPDTTEEDTEKIIAALEELAARGEEHGLLDILVDVEAGVKQEHIDKIADAAEEIEERYPRVTIIIALDEE
# Biological target: MAP1LC3A, Q9H492
# Assay: median log2 fold change of GCK-ALFA target abundance (FLAG IP / Myc IP barcode read proportion) (log2 ratio); each designed protein is fused to an ALFA-tag nanobody in HEK293 cells to bring the named protein to FLAG-tagged glucokinase (GCK); Myc marks an untargeted standard; higher = target protein stabilised (more abundant)
# Settings: target protein: 3xFLAG-MCP-GCK-ALFA reporter; HEK293 landing pad (RPLP)
# Outline: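 An ALFA-nanobody-fused binder library was recombined into HEK293 landing-pad cells and induced with 2 μg mL^−1 doxycycline. Cells were transfected with a plasmid expressing a FLAG-tagged target and a Myc-tagged standard. After 48 h, lysates underwent anti-FLAG and anti-Myc immunoprecipitation, and circular RNA barcodes were reverse transcribed, amplified and sequenced. Target abundance is the per-binder median log2 ratio of FLAG to Myc barcode read proportions. Barcodes needed ≥10^−7 proportion in both replicates, binders ≥3 barcodes per replicate, and a 10^−6 pseudocount was added; the two replicates were pooled.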
row,Binder,median log2 fold change
1,B1,0.175
2,B2,0.121
3,B3,-0.109
4,B4,0.16
5,B5,0.0691
6,B6,-0.138
7,B7,0.235
8,B8,-0.0758
9,B9,-0.221
10,B10,-0.056
11,B11,-0.28
12,B12,0.213
13,B13,0.141
14,B14,0.139
15,B15,0.228
16,B16,0.0471
17,B17,0.104
18,B18,0.123
19,B19,0.22
20,B20,-0.0346
21,B21,0.203
22,B22,-0.0699
23,B23,0.206
24,B24,0.339
25,B25,-0.0825
26,B26,0.2
27,B27,0.197
28,B28,-0.0314
29,B29,0.174
